# Measured values: PubChem BioAssay (NCATS)
# Several values for one entry are separate records, joined by “and”; a condition that tells them apart may be missing. Equal entries are not always repeated. The inconclusive results got no clear call from the source; some entries with a clear call stand among them for comparison. Potencies beside an inconclusive call are fits to weak or partial responses and may not hold up. Activity calls are given as the source filed them. Calls come from the whole dose curve; as a rule, active = well fitted cell-killing curve with a large enough effect; inconclusive = small, poorly fitted or top-dose-only effect, or effect the other way; inactive = no such curve, though single readings can be large or run the other way.
# Experiment: Viability qHTS for spleen associated tyrosine kinase inhibitor (SYKi) naive MV4-11 cells (AID 1963823); note: nearly all actives have a fitted effect of over 40% in size
# Conditions: MV4-11 AML viability, CellTiter-Glo luminescence, 72 h; viability (% of control): at 45 µM (top of the series)
# How it was run: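 Seeding of 500 SYKi-naive MV4-11 cells per well onto pre-dispensed compounds preceded a 72 hr incubation at 37 C. Luminescent CellTiter-Glo signal, read after 10 min at room temperature, reflected viable cells.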
# Potency is the fitted concentration of half-maximal effect; tags give direction and shape of the fitted curve.
Structure (SMILES),Potency,viability (% of control)
COc1ccncc1C(=O)NC(=O)Nc1ccc(-c2ccccc2)c(C(F)(F)F)c1,"inconclusive: 16.4 µM [cytotoxic, partial curve]",–
CCC[C@H](N[C@@H](C)C(=O)N1[C@H](C(=O)O)C[C@@H]2CCCC[C@@H]21)C(=O)O,"inconclusive: 6.51 µM [cytotoxic, partial curve, poor fit]",–
CC(C)C(=O)c1c(C(C)C)nn2ccccc12,–,inactive: 93.7%
COc1ccc(C(=O)C2CCN(CC(=O)N(Cc3nc4c(c(=O)[nH]3)COCC4)CC3CC3)CC2)cc1,–,inactive: 56%
NC(=O)NC1N=C([O][Al])NC1=O (stereo not given),"inconclusive: 5.96 µM [rising, partial curve, poor fit]",–
CC1(NC(=O)c2ccc(C#Cc3cccc(F)c3)cn2)COC1,"inconclusive: 20.6 µM [cytotoxic, partial curve]",–
CCOc1cccc(NC(=O)c2ccc(N3CCCC3)c(C(F)(F)F)c2)c1,"inconclusive: 18.4 µM [cytotoxic, partial curve]",–
COCCN(C)Cc1ccc2nc3sc(C(=O)N(C)C4CCCCC4)cn3c2c1,–,inactive: 71.8%
CCCCOCCOC(=O)c1cccnc1,–,inactive: 59.4%
CN1C(=O)N(c2cc(Cl)cc(Cl)c2)C(=O)[C@@]1(C)Cc1ccc(Br)cc1,"inconclusive: 14.6 µM [cytotoxic, partial curve]",–
Nc1nc2c(c(N3CCNCC3)n1)CCC1=C2[C@@H]2CCCC[C@@H]2O1,"inconclusive: 8.2 µM [cytotoxic, partial curve]",–
O=C(O)C1(C(=O)O)CCC1.[NH2-].[NH2-].[Pt+2],–,inactive: 55.2%
COCCCNCC1COc2ccccc2O1 (stereo not given),–,inactive: 66.8%
CC(=O)Nc1nc2c(Oc3cc(-c4ccc(C(F)(F)F)cc4)ncn3)cccc2s1,"inconclusive: 3.26 µM [cytotoxic, full curve]",–
Cc1nc2cc(-c3cc(F)cc(C#N)c3)ccc2s1,–,inactive: 72.5%
Oc1ccccc1-c1cc(-c2ccccc2F)[nH]n1,"inconclusive: 4.11 µM [cytotoxic, partial curve, poor fit]",–
O=C(c1cc(O)c(O)c(O)c1)c1ccc(O)c(O)c1O,"inconclusive: 0.0067 µM [rising, full curve]",–
COc1cc2c(cc1OCCCN1CCCC1)N=C(N)C21CCC1,"inactive and inconclusive: 14.8 µM [cytotoxic, partial curve]",–
COc1ccc(CN(CCN(C)C)c2ccccn2)cc1,active: 16.8 µM,–
COc1cc(O)c(C(=O)c2ccccc2)cc1S(=O)(=O)O,"inconclusive: 21.1 µM [cytotoxic, single point]",–

Structure (SMILES),Potency,viability (% of control)
CC(=O)SCC(CC(=O)c1ccc(C)cc1)C(=O)O (stereo not given),"inconclusive: 5.31 µM [cytotoxic, partial curve, poor fit]",–
CC(C)[N+](C)(CCOC(=O)C1c2ccccc2Oc2ccccc21)C(C)C,"inconclusive: 29.9 µM [cytotoxic, single point]",–
On1ncc(C2CCNCC2)c1-c1cccc(-c2ccccc2)c1,"inconclusive: 32.6 µM [cytotoxic, partial curve, poor fit]",–
O=C(c1ccc(OC(F)F)c(C#Cc2ccccn2)c1)N1Cc2cccnc2C1,"inconclusive: 20.6 µM [cytotoxic, partial curve, poor fit]",–
CC[C@@H](C)[C@H](N)C(=O)N1Cc2ccccc2C1,"inconclusive: 10.3 µM [cytotoxic, partial curve, poor fit]",–
CC[C@H]1CN(c2nc(N)c(C(N)=O)nc2Cl)CCN1C1CCN(Cc2ccc(Cl)cc2)CC1,–,inactive: 62.9%
C[C@H](N)C(=O)N[C@@H](C)C(=O)NC1[C@H]2CN(c3nc4c(cc3F)c(=O)c(C(=O)O)cn4-c3ccc(F)cc3F)C[C@@H]12 (stereo not given in full),"inconclusive: 33.5 µM [cytotoxic, single point]",–
CC(=O)CC(c1ccc([N+](=O)[O-])cc1)c1c(O)c2ccccc2oc1=O (stereo not given),–,inactive: 89.4%
CN1CCC(Nc2nc(Nc3ccc(Oc4ccccc4)cc3)c3c(=O)[nH]cc(Br)c3n2)CC1,–,inactive: 0.873%
O=c1cc(OCc2ccc(F)cc2)ccn1-c1ccc(OCCN2CCCC2)cc1,"inconclusive: 14.6 µM [cytotoxic, partial curve]",–
CCOc1nc2cccc(C(=O)O)c2n1Cc1ccc(-c2ccccc2-c2noc(=O)[nH]2)cc1,"inconclusive: 18.4 µM [cytotoxic, single point]",–
Nc1ccc(/C=C/c2ccc(N)cc2S(=O)(=O)O)c(S(=O)(=O)O)c1,–,inactive: 106% [at 0.588 µM]
CC(=O)c1ccc(O)c(C(N)=O)c1,–,inactive: 80.9%
CCNC(=O)C1CC(F)(c2ccc(CN3CCCC3)c(F)c2)C1 (stereo not given),–,inactive: 75%
[O-][n+]1cccc(/C(Cl)=N/OC[C@@H](O)CN2CCCCC2)c1,–,inactive: 107%
COc1cc(C(=O)NCCCCCC(=O)O)cc(OC)c1OC,–,inactive: 79.3%
CN1CC2CN(c3ccc4oc5ccccc5c(=O)c4c3)CC2C1 (stereo not given),"inconclusive: 2 µM [cytotoxic, partial curve]",–
NS(=O)(=O)c1cc(C(=O)NN2C[C@H]3[C@H]4CCC(C4)[C@H]3C2)ccc1Cl,"inconclusive: 5.31 µM [cytotoxic, partial curve, poor fit]",–
CCN1CCC[C@@H]1CNC(=O)c1ccc2c(c1)NC(=O)c1cccc(C)c1S2,"inconclusive: 18.4 µM [cytotoxic, single point]",–
O=C(CCCCC(=O)Nc1c(I)cc(I)c(C(=O)O)c1I)Nc1c(I)cc(I)c(C(=O)O)c1I,"inconclusive: 23.7 µM [cytotoxic, single point]",–
